Assay results: publication PMC4336329 (PLoS ONE, 2015)
Among all 310,000 compounds or so, about 2,200 (0.71%) showed an effect of 50% or more. Effects have a minus sign here. This is one part of the list.

The compounds below were run against human ether-à-go-go-related gene (hERG) potassium channel (human, UniProt Q12809) (assay: primary screen, population patch clamp on CHO cells stably expressing hERG).
Chain of human ether-à-go-go-related gene (hERG) potassium channel (Q12809 whole entry, looked up): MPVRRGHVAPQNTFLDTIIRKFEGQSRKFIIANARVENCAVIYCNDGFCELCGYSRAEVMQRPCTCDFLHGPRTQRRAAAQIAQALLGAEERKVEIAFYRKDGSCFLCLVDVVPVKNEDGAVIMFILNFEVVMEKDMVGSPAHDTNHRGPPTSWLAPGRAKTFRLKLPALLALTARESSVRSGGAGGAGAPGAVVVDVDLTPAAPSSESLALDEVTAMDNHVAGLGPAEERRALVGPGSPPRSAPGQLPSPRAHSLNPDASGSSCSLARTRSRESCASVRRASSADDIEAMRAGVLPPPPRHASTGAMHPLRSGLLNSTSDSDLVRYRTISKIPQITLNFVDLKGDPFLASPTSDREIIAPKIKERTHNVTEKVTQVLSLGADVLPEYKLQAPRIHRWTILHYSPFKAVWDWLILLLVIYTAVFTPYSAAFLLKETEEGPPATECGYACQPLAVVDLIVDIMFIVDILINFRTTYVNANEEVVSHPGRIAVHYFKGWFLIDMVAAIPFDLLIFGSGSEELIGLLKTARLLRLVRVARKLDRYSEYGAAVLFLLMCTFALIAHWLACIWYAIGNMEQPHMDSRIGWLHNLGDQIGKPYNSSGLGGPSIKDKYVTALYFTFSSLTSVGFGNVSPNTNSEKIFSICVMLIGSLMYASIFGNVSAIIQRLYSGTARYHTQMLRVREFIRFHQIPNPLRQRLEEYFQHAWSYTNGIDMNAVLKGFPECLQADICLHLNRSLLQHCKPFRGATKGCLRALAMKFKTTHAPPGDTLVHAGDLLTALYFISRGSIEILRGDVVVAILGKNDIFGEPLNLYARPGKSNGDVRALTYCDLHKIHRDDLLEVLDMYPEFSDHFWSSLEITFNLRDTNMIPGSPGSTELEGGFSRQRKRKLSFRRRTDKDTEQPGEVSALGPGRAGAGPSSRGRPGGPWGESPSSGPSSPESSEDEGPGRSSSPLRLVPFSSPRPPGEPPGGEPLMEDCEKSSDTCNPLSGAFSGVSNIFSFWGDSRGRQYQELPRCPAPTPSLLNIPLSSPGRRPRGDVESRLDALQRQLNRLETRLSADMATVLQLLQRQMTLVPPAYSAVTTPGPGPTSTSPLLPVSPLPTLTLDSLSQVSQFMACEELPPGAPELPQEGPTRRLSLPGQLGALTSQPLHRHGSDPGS
CNC(=O)CSc1nc2cc(S(=O)(=O)Nc3ccccc3OC)ccc2o1 was tested, and the “hERG current change (%, negative = inhibition) at 1uM” value was 9.52%. In the case of C=C1C(O)(c2ccccc2)C2CC[N+]1(C)CC2.[Cl-] (stereo not shown), the “hERG current change (%, negative = inhibition) at 1uM” value is reported as 12.1%. With COc1ccc(-c2nnc(SCC(=O)NCc3cccs3)n2CC(C)C)cc1 the “hERG current change (%, negative = inhibition) at 1uM” value was 2.93%. CCN(CC)CC1C(=O)N(c2ccc(OC)cc2)C1c1ccccc1 (stereo not shown) was tested, and the “hERG current change (%, negative = inhibition) at 1uM” value was 7.47%. For Cc1ccc(C2N(c3ccccn3)C(=O)C3CCCN32)o1 (stereo not shown), the “hERG current change (%, negative = inhibition) at 1uM” value was 8.76%. With CCc1nnc(SCC(=O)NC2CCCC2)nc1CC the “hERG current change (%, negative = inhibition) at 1uM” value was -0.987%. In the case of O=C(CSc1nnc(-c2ccncc2)n1C1CCCCC1)Nc1cccc(O)c1, the “hERG current change (%, negative = inhibition) at 1uM” value is reported as 15.4%. For CCn1c(SCc2ccccc2)nc2c(c1=O)SCC2, the “hERG current change (%, negative = inhibition) at 1uM” value was 2.26%. For O=C(C1CCN(C2CCN(Cc3cccc4c3OCO4)CC2)CC1)N1CCOCC1, the “hERG current change (%, negative = inhibition) at 1uM” value was 7.4%. With COc1cc(CNC(=O)CCC(=O)N2C[C@H]3C[C@H](C2)c2cccc(=O)n2C3)cc(OC)c1OC the “hERG current change (%, negative = inhibition) at 1uM” value was 8.04%. In the case of COc1ccccc1-n1c(/C=C/c2ccccn2)nc2ccccc2c1=O, the “hERG current change (%, negative = inhibition) at 1uM” value is reported as 6.81%. In the case of C=CCn1c(NCc2cc(Cl)ccc2O)nc2ccccc21, the “hERG current change (%, negative = inhibition) at 1uM” value is reported as 15.3%. CCC(=O)NC(Nc1cccc(C)n1)(C(F)(F)F)C(F)(F)F was tested, and the “hERG current change (%, negative = inhibition) at 1uM” value was 13.3%. In the case of CCOc1ccc(NC(=O)Nc2ccc(NC(C)=O)cc2)cc1, the “hERG current change (%, negative = inhibition) at 1uM” value is reported as 16.5%. For COc1cccc(/C=N\Nc2nncc(-c3ccccc3)n2)c1, the “hERG current change (%, negative = inhibition) at 1uM” value was 9.9%. In the case of CCC(=NCC1CCCO1)c1c(O)n(-c2ccccc2C)c(=O)[nH]c1=O (stereo not shown), the “hERG current change (%, negative = inhibition) at 1uM” value is reported as 19.4%. In the case of CCOC(=O)/C(C#N)=C1\C=CN(C)C(C)=N1, the “hERG current change (%, negative = inhibition) at 1uM” value is reported as 4.92%. With Cc1cc2c(C)nc(Cc3ccccc3)nc2o1 the “hERG current change (%, negative = inhibition) at 1uM” value was 10.2%. For COc1cccc(OC)c1C(=O)O/N=C(\N)c1ccncc1, the “hERG current change (%, negative = inhibition) at 1uM” value was 14%. CCOc1ccc(C2CC(c3cccc(OC)c3)Nc3nc(N)nn32)cc1 (stereo not shown) was tested, and the “hERG current change (%, negative = inhibition) at 1uM” value was -5.32%. With Cc1ccc(S(=O)(=O)N(C)CC(=O)NCc2ccncc2)cc1 the “hERG current change (%, negative = inhibition) at 1uM” value was -5.58%. In the case of Cc1ccc(CN2C(=O)CCC2C(=O)NCCN2CCOCC2)cc1 (stereo not shown), the “hERG current change (%, negative = inhibition) at 1uM” value is reported as 8.86%. O=C(Nc1ccc2c(c1)OCO2)C1CCN(S(=O)(=O)Cc2ccccc2)CC1 was tested, and the “hERG current change (%, negative = inhibition) at 1uM” value was 10.9%. For CC(=O)N1c2ccc(S(=O)(=O)N(C)C3CCCCC3)cc2CC1C (stereo not shown), the “hERG current change (%, negative = inhibition) at 1uM” value was -4.1%. In the case of CCN(CC)CCNC(=O)Cn1nc(-c2ccc(C)cc2)ccc1=O, the “hERG current change (%, negative = inhibition) at 1uM” value is reported as 10.6%. N#Cc1cccn1-c1nccc(-c2cccs2)n1 was tested, and the “hERG current change (%, negative = inhibition) at 1uM” value was 11.4%. In the case of Cc1sc2nc(SCC(=O)O)[nH]c(=O)c2c1C, the “hERG current change (%, negative = inhibition) at 1uM” value is reported as 1.56%. CCCCN(CC)CCNC(=O)c1[nH]c(C)c(C(C)=O)c1C was tested, and the “hERG current change (%, negative = inhibition) at 1uM” value was 6.32%. With Cc1oc(-c2ccccc2F)nc1CS(=O)(=O)CC(=O)NCCN1CCCC1 the “hERG current change (%, negative = inhibition) at 1uM” value was 16.9%. In the case of CCOc1ccc(N(CC)C(=O)Cc2c(C(=O)O)n(C)c3ccccc23)cc1, the “hERG current change (%, negative = inhibition) at 1uM” value is reported as 12.7%. In the case of O=C(O)COc1ccc2c(c1)OCCO2, the “hERG current change (%, negative = inhibition) at 1uM” value is reported as 4.83%. With O=C(Cn1c(=O)oc2cc(S(=O)(=O)N3CCCC3)ccc21)N1CCN(c2ccccc2F)CC1 the “hERG current change (%, negative = inhibition) at 1uM” value was 7.28%. For Cc1ccccc1OC(C)C(=O)NCCCN1CCOCC1 (stereo not shown), the “hERG current change (%, negative = inhibition) at 1uM” value was 15.7%. O=C1CSC(c2cccnc2)N1Cc1cccnc1 (stereo not shown) was tested, and the “hERG current change (%, negative = inhibition) at 1uM” value was 13%. With Cc1nn(CC(=O)OCC(=O)NC(C)c2ccccc2)c(C)c1[N+](=O)[O-] (stereo not shown) the “hERG current change (%, negative = inhibition) at 1uM” value was 4.56%. In the case of COc1ccc(C(=O)Oc2cc(C(=S)N3CCOCC3)ccc2OC)cc1, the “hERG current change (%, negative = inhibition) at 1uM” value is reported as 15.1%. In the case of NC(=O)c1nc(N2CCOCC2)nc(N2CCOCC2)n1, the “hERG current change (%, negative = inhibition) at 1uM” value is reported as 15.7%. With CCN(CC)c1ccc(C(=O)NNC(=O)c2cccn2C)cc1 the “hERG current change (%, negative = inhibition) at 1uM” value was 6.51%. For COc1cc(NS(=O)(=O)c2ccc3ccccc3c2)c2ncccc2c1, the “hERG current change (%, negative = inhibition) at 1uM” value was 9.9%. For CCCC1(C(=O)OC)NC(c2ccc(OC)c(OC)c2)C2C(=O)N(c3cccc(C(C)=O)c3)C(=O)C21 (stereo not shown), the “hERG current change (%, negative = inhibition) at 1uM” value was 11.9%. For CCN1C(=O)CSC1=Nc1ccc(C(=O)O)cc1, the “hERG current change (%, negative = inhibition) at 1uM” value was 16.6%. For CCCc1c(C(=O)Nc2ccc(F)cc2F)cnn1-c1ccccc1, the “hERG current change (%, negative = inhibition) at 1uM” value was 17.6%. With COc1ccc(N(CC(=O)NCc2ccccn2)S(=O)(=O)c2ccccc2[N+](=O)[O-])c(OC)c1 the “hERG current change (%, negative = inhibition) at 1uM” value was 9.62%. COc1ccccc1N1CCN(S(=O)(=O)c2ccc(Br)s2)CC1 was tested, and the “hERG current change (%, negative = inhibition) at 1uM” value was -5.53%. For CCc1c(C)nc2ncnn2c1NCCc1ccccc1, the “hERG current change (%, negative = inhibition) at 1uM” value was -6.11%. COc1cc(C(=O)NCCSc2ccc(Br)cc2)cc(OC)c1OC was tested, and the “hERG current change (%, negative = inhibition) at 1uM” value was 7.49%. In the case of CCc1nnc(NC(=O)C2CCCN(S(=O)(=O)c3ccccc3)C2)s1 (stereo not shown), the “hERG current change (%, negative = inhibition) at 1uM” value is reported as 9.52%. In the case of CCc1cc2cc3c(cc2nc1SCC(=O)Nc1nnc(C)s1)OCCO3, the “hERG current change (%, negative = inhibition) at 1uM” value is reported as 12%. CCS(=O)(=O)N1CCN(c2ccc([N+](=O)[O-])c(NCc3cccnc3)c2)CC1 was tested, and the “hERG current change (%, negative = inhibition) at 1uM” value was 0.286%. In the case of Cc1nc2[nH]c(=S)n(C)c(=O)c2nc1C, the “hERG current change (%, negative = inhibition) at 1uM” value is reported as 16.1%. For COC(=O)c1cccnc1-n1c(=O)c2cccnc2n(Cc2cccc([N+](=O)[O-])c2)c1=O, the “hERG current change (%, negative = inhibition) at 1uM” value was 2.09%. O=C(CC(Sc1ccccc1)c1cccs1)c1ccco1 (stereo not shown) was tested, and the “hERG current change (%, negative = inhibition) at 1uM” value was 13.3%. For CCc1ccccc1NC(=O)NNC(=O)c1ccc2ccccc2c1O, the “hERG current change (%, negative = inhibition) at 1uM” value was 12.6%. For CCn1c(COc2ccc3c(c2)OCO3)nnc1SCC(=O)c1ccccc1, the “hERG current change (%, negative = inhibition) at 1uM” value was 17.7%. COc1ccc(S(=O)(=O)N2CCc3ccccc32)cc1C(=O)N(CC(C)C)C1CCS(=O)(=O)C1 (stereo not shown) was tested, and the “hERG current change (%, negative = inhibition) at 1uM” value was -0.203%. With C=CCN(c1ccccc1)S(=O)(=O)c1ccc2c(c1)oc(=O)n2C the “hERG current change (%, negative = inhibition) at 1uM” value was 10.7%. In the case of COCCCNc1nc(N)c([N+](=O)[O-])c(NC2CCCCC2)n1, the “hERG current change (%, negative = inhibition) at 1uM” value is reported as 10.8%. COc1ccc(S(=O)(=O)N(CCc2ccccc2)CC(=O)NCCCO)cc1 was tested, and the “hERG current change (%, negative = inhibition) at 1uM” value was -12.8%.
